Laboratory results reported in article PMC9911399, “Two distinct binding modes provide the RNA-binding protein RbFox with extraordinary sequence specificity”.
Where a chain is given by its changes, count along the chain named. The list shows a part of the results.

T1: RBFOX1 RRM (Homo sapiens, UniProt Q9NWB1 109-208)
T1 sequence: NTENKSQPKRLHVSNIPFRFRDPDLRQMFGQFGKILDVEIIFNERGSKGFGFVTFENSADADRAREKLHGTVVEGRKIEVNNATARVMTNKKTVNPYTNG

B1: CGCUCUG (DNA:RNA)
RNA: GGGAGACCGGAAUUCAGAUUGUCCCGCUCUGUUAAAUCCCGUCGUAGCCACCA
DNA 1: CAATCTGAATTCCGGTCTCCC
DNA 2: TGGTGGCTACGACGGGATT
B2: GGCUACA (DNA:RNA)
RNA: B1 RNA with C25G, C29A, U30C, G31A
DNA 1: CAATCTGAATTCCGGTCTCCC
DNA 2: TGGTGGCTACGACGGGATT
B3: ACGUAUG (DNA:RNA)
RNA: B1 RNA with C25A, G26C, C27G, C29A
DNA 1: CAATCTGAATTCCGGTCTCCC
DNA 2: TGGTGGCTACGACGGGATT
B4: CGAGUGG (DNA:RNA)
RNA: B1 RNA with C27A, U28G, C29U, U30G
DNA 1: CAATCTGAATTCCGGTCTCCC
DNA 2: TGGTGGCTACGACGGGATT
B5: UGCGUGG (DNA:RNA)
RNA: B1 RNA with C25U, U28G, C29U, U30G
DNA 1: CAATCTGAATTCCGGTCTCCC
DNA 2: TGGTGGCTACGACGGGATT
B6: GCGGGGC (DNA:RNA)
RNA: GGGAGACCGGAAUUCAGAUUGUCCGCGGGGCUUAAAUCCCGUCGUAGCCACCA
DNA 1: CAATCTGAATTCCGGTCTCCC
DNA 2: TGGTGGCTACGACGGGATT
B7: CGCGCUU (DNA:RNA)
RNA: B1 RNA with U28G, G31U
DNA 1: CAATCTGAATTCCGGTCTCCC
DNA 2: TGGTGGCTACGACGGGATT
B8: GGGGACG (DNA:RNA)
RNA: B6 RNA with C26G, G29A, G30C, C31G
DNA 1: CAATCTGAATTCCGGTCTCCC
DNA 2: TGGTGGCTACGACGGGATT
B9: CUUCUUG (DNA:RNA)
RNA: B1 RNA with G26U, C27U, U28C, C29U
DNA 1: CAATCTGAATTCCGGTCTCCC
DNA 2: TGGTGGCTACGACGGGATT
B10: ACGGAUA (DNA:RNA)
RNA: B6 RNA with G25A, G29A, G30U, C31A
DNA 1: CAATCTGAATTCCGGTCTCCC
DNA 2: TGGTGGCTACGACGGGATT
B11: UGUCAAC (DNA:RNA)
RNA: B1 RNA with C25U, C27U, U28C, C29A, U30A, G31C
DNA 1: CAATCTGAATTCCGGTCTCCC
DNA 2: TGGTGGCTACGACGGGATT
B12: CUAUAGU (DNA:RNA)
RNA: B1 RNA with G26U, C27A, C29A, U30G, G31U
DNA 1: CAATCTGAATTCCGGTCTCCC
DNA 2: TGGTGGCTACGACGGGATT
B13: UAUCCGU (DNA:RNA)
RNA: B1 RNA with C25U, G26A, C27U, U28C, U30G, G31U
DNA 1: CAATCTGAATTCCGGTCTCCC
DNA 2: TGGTGGCTACGACGGGATT
B14: UGCUUCC (DNA:RNA)
RNA: B1 RNA with C25U, C29U, U30C, G31C
DNA 1: CAATCTGAATTCCGGTCTCCC
DNA 2: TGGTGGCTACGACGGGATT
B15: GAGUUCA (DNA:RNA)
RNA: B6 RNA with C26A, G28U, G29U, G30C, C31A
DNA 1: CAATCTGAATTCCGGTCTCCC
DNA 2: TGGTGGCTACGACGGGATT
B16: GAUAAAU (DNA:RNA)
RNA: B6 RNA with C26A, G27U, G28A, G29A, G30A, C31U
DNA 1: CAATCTGAATTCCGGTCTCCC
DNA 2: TGGTGGCTACGACGGGATT
B17: UAAUUCA (DNA:RNA)
RNA: B1 RNA with C25U, G26A, C27A, C29U, U30C, G31A
DNA 1: CAATCTGAATTCCGGTCTCCC
DNA 2: TGGTGGCTACGACGGGATT
B18: UUGUACU (DNA:RNA)
RNA: B1 RNA with C25U, G26U, C27G, C29A, U30C, G31U
DNA 1: CAATCTGAATTCCGGTCTCCC
DNA 2: TGGTGGCTACGACGGGATT
B19: GUUCCGA (DNA:RNA)
RNA: B6 RNA with C26U, G27U, G28C, G29C, C31A
DNA 1: CAATCTGAATTCCGGTCTCCC
DNA 2: TGGTGGCTACGACGGGATT
B20: UAUCCGC (DNA:RNA)
RNA: B6 RNA with G25U, C26A, G27U, G28C, G29C
DNA 1: CAATCTGAATTCCGGTCTCCC
DNA 2: TGGTGGCTACGACGGGATT
B21: UUGACGA (DNA:RNA)
RNA: B6 RNA with G25U, C26U, G28A, G29C, C31A
DNA 1: CAATCTGAATTCCGGTCTCCC
DNA 2: TGGTGGCTACGACGGGATT
B22: CGCAGUU (DNA:RNA)
RNA: B1 RNA with U28A, C29G, G31U
DNA 1: CAATCTGAATTCCGGTCTCCC
DNA 2: TGGTGGCTACGACGGGATT
B23: GGGCCUU (DNA:RNA)
RNA: B1 RNA with C25G, C27G, U28C, G31U
DNA 1: CAATCTGAATTCCGGTCTCCC
DNA 2: TGGTGGCTACGACGGGATT
B24: UCAUUAA (DNA:RNA)
RNA: B1 RNA with C25U, G26C, C27A, C29U, U30A, G31A
DNA 1: CAATCTGAATTCCGGTCTCCC
DNA 2: TGGTGGCTACGACGGGATT
B25: AUAGGAC (DNA:RNA)
RNA: B6 RNA with G25A, C26U, G27A, G30A
DNA 1: CAATCTGAATTCCGGTCTCCC
DNA 2: TGGTGGCTACGACGGGATT
B26: CGAAUAU (DNA:RNA)
RNA: B1 RNA with C27A, U28A, C29U, U30A, G31U
DNA 1: CAATCTGAATTCCGGTCTCCC
DNA 2: TGGTGGCTACGACGGGATT
B27: AUAUUAU (DNA:RNA)
RNA: B1 RNA with C25A, G26U, C27A, C29U, U30A, G31U
DNA 1: CAATCTGAATTCCGGTCTCCC
DNA 2: TGGTGGCTACGACGGGATT
B28: UAGCAGG (DNA:RNA)
RNA: B6 RNA with G25U, C26A, G28C, G29A, C31G
DNA 1: CAATCTGAATTCCGGTCTCCC
DNA 2: TGGTGGCTACGACGGGATT
B29: GAUCUCA (DNA:RNA)
RNA: B6 RNA with C26A, G27U, G28C, G29U, G30C, C31A
DNA 1: CAATCTGAATTCCGGTCTCCC
DNA 2: TGGTGGCTACGACGGGATT
B30: CUAAUUU (DNA:RNA)
RNA: B1 RNA with G26U, C27A, U28A, C29U, G31U
DNA 1: CAATCTGAATTCCGGTCTCCC
DNA 2: TGGTGGCTACGACGGGATT
B31: CGUAAGC (DNA:RNA)
RNA: B1 RNA with C27U, U28A, C29A, U30G, G31C
DNA 1: CAATCTGAATTCCGGTCTCCC
DNA 2: TGGTGGCTACGACGGGATT

target: T1, RBFOX1 RRM; assay: EMSA; HiTS-Eq, 1 nM pool, 10 min; buffer printed only for the single-RNA assays: 10 mM Tris pH 7.5, 150 mM NaCl, 3.4 mM EDTA, 0.001% NP-40, 30 C; conditions: tags: His6 N-terminal (pET28a); label: 5' 32P
Method in brief: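 Purified RbFox RRM (wild type or mutant) was equilibrated for 10 min in 50 µL with 1 nM of a 5′-radiolabelled pool of RNA with 7 randomized nucleotides, its flanks annealed to DNA oligonucleotides, across increasing protein concentrations. Free RNA was separated by 8% native PAGE, excised, reverse-transcribed, PCR-barcoded and sequenced on an Illumina HiSeq 2500. Relative association constants came from read-count changes of each variant against the control reaction, normalised to the cognate motif.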

Binder | binding signal
B1 | 0.0172 KA relative to UGCAUGU
B2 | 0.00197 KA relative to UGCAUGU
B3 | 0.0128 KA relative to UGCAUGU
B4 | 0.0101 KA relative to UGCAUGU
B5 | 0.0211 KA relative to UGCAUGU
B6 | 0.0231 KA relative to UGCAUGU
B7 | 0.0107 KA relative to UGCAUGU
B8 | 0.0277 KA relative to UGCAUGU
B9 | 0.0157 KA relative to UGCAUGU
B10 | 0.0095 KA relative to UGCAUGU
B11 | 0.00884 KA relative to UGCAUGU
B12 | 0.00705 KA relative to UGCAUGU
B13 | 0.00816 KA relative to UGCAUGU
B14 | 0.0171 KA relative to UGCAUGU
B15 | 0.0118 KA relative to UGCAUGU
B16 | 0.00632 KA relative to UGCAUGU

Binder | binding signal
B17 | 0.00413 KA relative to UGCAUGU
B18 | 0.00971 KA relative to UGCAUGU
B19 | 0.0204 KA relative to UGCAUGU
B20 | 0.00588 KA relative to UGCAUGU
B21 | 0.0118 KA relative to UGCAUGU
B22 | 0.00892 KA relative to UGCAUGU
B23 | 0.0213 KA relative to UGCAUGU
B24 | 0.000346 KA relative to UGCAUGU
B25 | 0.00455 KA relative to UGCAUGU
B26 | 0.00361 KA relative to UGCAUGU
B27 | 0.00253 KA relative to UGCAUGU
B28 | 0.012 KA relative to UGCAUGU
B29 | 0.00437 KA relative to UGCAUGU
B30 | 0.00335 KA relative to UGCAUGU
B31 | 0.00859 KA relative to UGCAUGU
